# Test results published in PubChem BioAssay AID1468 (National Center for Advancing Translational Sciences (NCATS), 2008).
# Screen size: about 280,000 compounds; about 1,100 (0.39%) were called active. Inconclusive results, whose numbers are uncertain, are shown with a selection of clear calls. The call rests on the fitted dose curve; in most records, active means well fitted inhibition curve with a large enough effect; inconclusive means small, poorly fitted or top-dose-only effect, or effect the other way; inactive means flat fitted curve, though single readings scatter. No potency is given beside an inconclusive call; the fits are too rough.
# Target: Microtubule-associated protein tau (Homo sapiens) (UniProt P10636)
# Sequence of UniProt P10636 (P10636 whole entry, looked up): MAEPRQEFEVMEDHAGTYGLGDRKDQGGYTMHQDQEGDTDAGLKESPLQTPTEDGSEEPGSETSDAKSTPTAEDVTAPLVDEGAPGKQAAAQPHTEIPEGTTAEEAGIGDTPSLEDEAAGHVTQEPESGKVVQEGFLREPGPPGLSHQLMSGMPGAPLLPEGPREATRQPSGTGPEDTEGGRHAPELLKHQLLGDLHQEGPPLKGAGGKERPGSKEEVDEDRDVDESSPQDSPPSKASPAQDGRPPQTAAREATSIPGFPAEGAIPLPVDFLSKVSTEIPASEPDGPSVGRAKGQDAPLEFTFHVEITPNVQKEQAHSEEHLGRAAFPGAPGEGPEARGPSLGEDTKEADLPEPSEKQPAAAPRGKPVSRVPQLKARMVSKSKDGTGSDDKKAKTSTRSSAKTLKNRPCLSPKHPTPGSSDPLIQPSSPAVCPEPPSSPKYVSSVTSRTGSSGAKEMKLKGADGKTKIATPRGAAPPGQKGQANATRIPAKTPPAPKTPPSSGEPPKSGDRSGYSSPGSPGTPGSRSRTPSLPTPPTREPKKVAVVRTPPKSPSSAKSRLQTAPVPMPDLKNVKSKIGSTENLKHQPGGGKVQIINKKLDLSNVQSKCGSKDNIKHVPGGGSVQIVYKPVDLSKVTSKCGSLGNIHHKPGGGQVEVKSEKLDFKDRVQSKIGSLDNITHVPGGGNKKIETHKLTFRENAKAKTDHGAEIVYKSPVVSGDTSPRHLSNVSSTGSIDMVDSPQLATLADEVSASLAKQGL
# Experiment: qHTS for Inhibitors of Tau Fibril Formation, Fluorescence Polarization; further: nearly all actives have a fitted effect of over 55% in size
# Settings: K18 P301L tau heparin fibrillization, Alexa594 FP, 6 h; series mostly up to 57.7 µM; activity, negative = inhibition: at the top concentration
# Procedure, shortened: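 Quantitative HTS format: compounds meet 15 uM recombinant K18 P301L tau and Alexa 594-tau tracer in 100 mM sodium acetate pH 7; 20 uM heparin triggers fibrillization at 37 C over 6 hr; FP gives the signal.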
# On the % scale 0 is the no-effect control and ±100 the full control effect; potency means the concentration at half of the fitted maximal effect; tags describe the fitted curve by direction and shape.
Structure (SMILES),"activity, negative = inhibition",Potency
O=C1CC(N2CCSCC2)C(=O)N1c1ccccc1 (stereo not given),inactive: -1.76%,
N/C(=N\OC(=O)c1ccc(Cl)c(Cl)c1)c1cccc(CSc2ccccn2)c1,,"inconclusive [inhibitor, single point]"
Cc1ccc(Nc2c(-c3ccccc3O)nc3cc(C)ccn23)cc1,,"inconclusive [activator, full curve, poor fit]"
O=C(N/N=C/c1cccs1)c1cccc(S(=O)(=O)Nc2ccc(Cl)cc2)c1,,"inconclusive [inhibitor, single point]"
CCn1cc(C(=O)NCc2ccc(C)o2)c2cc(OC)c(OC)cc2c1=O,,"inconclusive [inhibitor, partial curve]"
Cc1ccc2nc(N(CCCN(C)C)C(=O)CCc3ccccc3)sc2c1,,"inconclusive [inhibitor, single point]"
COc1cc(NC(=O)c2cc3ccc4cccnc4c3[nH]2)cc(OC)c1OC,,"inconclusive [inhibitor, partial curve]"
O=C(/C=C/c1ccc(O)c(O)c1)O[C@H](Cc1ccc(O)c(O)c1)C(=O)O,,"inconclusive [inhibitor, partial curve]"
CCOC(=O)c1ccc(NC(=O)CC2C(=O)N(c3ccc(C)cc3)C(=O)N2C2CCCC2)cc1 (stereo not given),,"inconclusive [inhibitor, partial curve]"
CC(NC(=O)c1cc(-c2ccc3c(c2)OCO3)nc2ccccc12)C(C)(C)C (stereo not given),,"inconclusive [inhibitor, single point]"
CCS(=O)(=O)c1oc(-c2ccc(F)cc2)nc1S(=O)(=O)c1ccc(Br)cc1,,"inconclusive [inhibitor, single point]"
O=C(Nc1ccc(Cl)cc1)Nc1ccc(Oc2cccnc2)nc1,,"inconclusive [inhibitor, partial curve]"
COc1ccccc1NS(=O)(=O)c1cccc(NC(=O)c2[nH]c(C)c(C(C)=O)c2C)c1,,"inconclusive [inhibitor, partial curve, poor fit]"
CC(=O)C1=C(c2ccc(Cl)c(Cl)c2)N(C(C)=O)n2cnnc2S1,,"inconclusive [inhibitor, full curve]"
COc1ccc(C(=O)c2cc3cccc(OC)c3o2)cc1,,"inconclusive [inhibitor, partial curve]"
COC(=O)CN1C(=O)CSc2ccc(S(=O)(=O)Nc3c(C)cc(C)cc3C)cc21,inactive: -6.24%,
COc1cc(NS(=O)(=O)c2ccc(F)cc2)c(OC)cc1NC(C)=O,inactive: -3.64%,
COc1cc(/C=N/NC(=O)Cn2nc([N+](=O)[O-])cc2C)cc(Br)c1OCc1ccccc1,,"inconclusive [inhibitor, partial curve]"
S=c1[nH]nc(-c2n[nH]c3c2CCC3)n1/N=C/C=C/c1ccco1,,"inconclusive [inhibitor, partial curve, poor fit]"
COc1cc(CNc2ccc(O)cc2)cc(Br)c1OCc1ccccc1F,,"inconclusive [inhibitor, single point]"
O=C(/C=C/c1ccc(N2CCCCC2)c([N+](=O)[O-])c1)c1ccc(S(=O)(=O)N2CCCC2)cc1,,"inconclusive [inhibitor, partial curve]"
Cc1ccc(-c2csc(NC(=O)CSc3ncn(-c4ccccc4)n3)n2)cc1,,"inconclusive [inhibitor, single point]"

Structure (SMILES),"activity, negative = inhibition",Potency
COC(=O)c1sccc1N/N=C/c1cccc(OC)c1O,,"inconclusive [activator, single point]"
CCOc1ccc(NC(=O)CSC2=Nc3ccccc3C3=NC(Cc4ccccc4)C(=O)N23)cc1 (stereo not given),inactive: -7.23%,
COc1ccc(Nc2nc3ccccc3nc2NS(=O)(=O)c2ccc(Cl)cc2)cc1OC,,"inconclusive [activator, single point]"
O=C1OC(c2ccc(F)cc2)=C/C1=C\c1ccc([N+](=O)[O-])o1,,"inconclusive [inhibitor, partial curve]"
COc1ccc(C(=O)NCCCn2ccnc2)cc1,,"inconclusive [inhibitor, single point]"
O=S(=O)(Nc1cccc(F)c1)c1ccc2[nH]c3c(c2c1)CCCCC3,,"inconclusive [inhibitor, single point]"
COc1cccc(C(=O)Oc2c(CN3CCOCC3)cc(Cl)c3cccnc23)c1,inactive: 4.79%,
CCOC(=O)c1cccc(NC(=O)CSc2nc3cc4ccccc4cc3[nH]2)c1,,"inconclusive [inhibitor, partial curve]"
O=C(O)C1CCC(NSc2ccccc2[N+](=O)[O-])CC1 (stereo not given),,active: 17.8 µM
COc1ccccc1-c1cc(C(=O)NCCc2ccccc2)no1,,"inconclusive [inhibitor, partial curve, poor fit]"
CC(C)c1nnc(NC(=O)C2CCCCC2)s1,inactive: 7.13%,
COC(=O)c1c(SCC(=O)Nc2cccc(Cl)c2C)[nH]c2ccccc2c1=O,,"inconclusive [activator, full curve, poor fit]"
O=C(c1cc(-c2cccc(O)c2)on1)N1CCN(C(c2ccccc2)c2ccccc2)CC1,,"inconclusive [inhibitor, partial curve]"
Cc1ccnc(SCC(=O)N2CCc3ccccc3C2)n1,inactive: -10.3% [at 2.34 µM],
Cc1cccc(CCNC(=O)c2ccc3c(c2)nc2n3CCCCC2)c1,inactive: -5.26%,
Cc1ccc(Cn2c(SCC(=O)NCC3CCCO3)nc3c2c(=O)n(C)c(=O)n3C)cc1 (stereo not given),,"inconclusive [inhibitor, single point]"
Cc1oc(-c2cccc(Cl)c2)nc1CSc1nnc(C)n2c1cc1occc12,,"inconclusive [activator, partial curve]"
C=CCc1ccc(OCCCCOc2ccc(C(=O)O)cc2)c(OC)c1,,"inconclusive [activator, single point]"
COc1ccc(CCN2C(=NC(=O)C(C)C)SC3CS(=O)(=O)CC32)cc1OC (stereo not given),,"inconclusive [inhibitor, single point]"
CC(=O)NCc1nc2cccnc2n1Cc1ccccc1,inactive: 1.86%,
COc1ccc(O)c(/C=N/Nc2nc(Nc3ccccc3)nc(-n3nc(C)cc3C)n2)c1,,"inconclusive [activator, full curve, poor fit]"
Cn1cc(/C=C2\SC(=S)N(NC(=O)c3ccccc3)C2=O)c2ccccc21,,active: 25.1 µM

Structure (SMILES),"activity, negative = inhibition",Potency
CCc1cccc(C)c1NC(=O)Cn1c(=O)n(-c2cccc(C)c2)c(=O)c2c1c1cc(C)ccc1n2C,,"inconclusive [activator, partial curve]"
COc1ccc(Cl)cc1N(C)C(=O)Cc1noc2ccc(C)cc12,,"inconclusive [inhibitor, single point]"
O=C(NC(NC(=S)Nc1ccc(Cl)cc1)C(Cl)(Cl)Cl)c1ccco1 (stereo not given),,"inconclusive [inhibitor, partial curve]"
COC(=O)c1ccc(N2Cc3ccccc3/C2=N\C(=O)Nc2ccccc2)cc1,,"inconclusive [inhibitor, partial curve]"
COc1ccc(-n2nnc(C(=O)Nc3ccccc3F)c2N)cc1,inactive: 2.61%,
CCOC(=O)CN1C(=O)N[C@@H](c2cccc(F)c2)C(C(=O)OC)=C1C,inactive: -7.37% [at 11.6 µM],
Cc1cccc(C(CC(=O)N2CCCC2)c2ccccc2)c1O (stereo not given),inactive: 4.84%,
CSc1ncc(Cl)c(C(=O)Nc2nnc(SC)s2)n1,,"inconclusive [inhibitor, single point]"
CCN1C(=O)c2ccccc2Sc2ccc(NC(=O)Cc3ccc(OC)cc3)cc21,,"inconclusive [inhibitor, single point]"
COc1ccc(-c2cc(-c3ccccc3)nc3c2COc2ccccc2-3)cc1,,"inconclusive [inhibitor, partial curve, poor fit]"
O=C(Cc1ccc(Cl)cc1)Nc1ccc(NC(=O)c2cccs2)cc1,,"inconclusive [inhibitor, full curve, poor fit]"
Cc1ccc(C(=O)CSc2n[nH]c(-c3ccco3)n2)cc1C,inactive: -3.4%,
Cc1cc(C)c(NS(=O)(=O)c2cc(-c3cnc(C4CC4)o3)ccc2C)c(C)c1,,"inconclusive [inhibitor, single point]"
CCCCC(CC)COC1(c2ccccc2)OC(=O)c2ccccc21 (stereo not given),,"inconclusive [inhibitor, single point]"
CCOc1ccc(C(=O)Nc2nnc(NC(=S)Nc3ccccc3)s2)cc1,,"inconclusive [inhibitor, partial curve]"
O=C(COC(=O)c1cc(-c2cccs2)nc2ccccc12)NC1CCS(=O)(=O)C1 (stereo not given),,"inconclusive [inhibitor, partial curve]"
O=C(Nc1cccc(Cl)c1)c1ccc(NCCCN2CCOCC2)c([N+](=O)[O-])c1,inactive: -8.9%,
Oc1ccccc1/C=N/Nc1nn[nH]n1,inactive: -9.7%,
COc1ccc(-n2nnnc2SCC(=O)c2ccc3c(c2)OCCO3)c(OC)c1,,"inconclusive [inhibitor, single point]"
Cc1ccsc1CCN1C(=O)N(c2ccc(F)cc2)C(=O)C1CC(=O)Nc1ccccc1 (stereo not given),,"inconclusive [inhibitor, partial curve]"
COc1cc(-c2noc(C3CC(=O)N(c4cc(C)ccc4C)C3)n2)cc(OC)c1OC (stereo not given),inactive: -6.38%,
